Paper PMC6919601, “Identification of Plasmodium dipeptidyl aminopeptidase allosteric inhibitors by high throughput screening” (PLoS ONE, 2019)
In all, about 110,000 compounds went through this assay and about 230 (0.21%) showed an effect of 50% or more. The list shows a part of the results.

What follows are molecules tested against DPAP1 (Plasmodium falciparum, UniProt Q8IIJ9) (assay: primary screen, percent inhibition; read by cleavage of a fluorogenic dipeptide substrate; higher = more effect of the substance).
Chain of DPAP1 (Q8IIJ9 whole entry, looked up): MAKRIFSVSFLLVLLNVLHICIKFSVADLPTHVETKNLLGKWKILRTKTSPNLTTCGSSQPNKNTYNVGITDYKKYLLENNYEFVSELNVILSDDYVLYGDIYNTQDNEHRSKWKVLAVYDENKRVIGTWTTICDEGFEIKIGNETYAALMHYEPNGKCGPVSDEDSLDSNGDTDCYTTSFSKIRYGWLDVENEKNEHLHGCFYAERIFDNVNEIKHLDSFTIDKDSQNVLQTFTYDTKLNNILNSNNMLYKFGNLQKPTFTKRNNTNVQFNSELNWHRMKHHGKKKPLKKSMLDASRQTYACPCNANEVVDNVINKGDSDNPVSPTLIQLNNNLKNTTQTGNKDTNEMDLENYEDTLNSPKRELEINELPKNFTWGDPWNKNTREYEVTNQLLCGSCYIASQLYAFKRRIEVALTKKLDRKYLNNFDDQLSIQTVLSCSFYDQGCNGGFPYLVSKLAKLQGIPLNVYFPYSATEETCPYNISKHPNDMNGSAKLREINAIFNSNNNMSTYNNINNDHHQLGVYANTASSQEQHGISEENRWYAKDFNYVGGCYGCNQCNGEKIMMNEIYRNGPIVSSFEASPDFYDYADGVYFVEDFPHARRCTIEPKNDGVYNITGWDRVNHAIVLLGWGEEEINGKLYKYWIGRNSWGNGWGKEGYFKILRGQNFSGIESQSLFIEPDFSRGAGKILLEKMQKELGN
Parameters: species or system P. falciparum D10 trophozoite lysates; single well
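Also: 30 min substrate incubation versus DMSO and 10 µM JCP410 controls.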

In order of falling “% Inhibition @ 10 uM” value:
1. CC(C)(Oc1ccc(Cl)cc1)C(=O)N1CCN(Cc2ccc3c(c2)OCO3)CC1  5.44%
2. Cc1sc2nc(SCC(=O)N3CCCC3)n(-c3ccc(F)cc3)c(=O)c2c1C  5.18%
3. CCOc1ccc2c(c1)C(C)=CC(C)(C)N2C(=O)CN1C(=O)c2ccccc2C1=O  5.14%
4. CN(C)CCCNC(=O)c1nc(-c2ccc3c(c2)OCO3)no1  4.31%
5. Cc1cccc(-n2c(N)cc(=O)nc2SCC(=O)Nc2cccc(C(F)(F)F)c2)c1  3.56%
6. Cn1cnnc1Sc1nc2c(c(=O)n(C)c(=O)n2C)n1Cc1ccc(F)cc1  3.25%
7. O=C(Cn1nc(-c2ccc(Cl)cc2)ccc1=O)NCCCN1CCN(Cc2ccccc2)CC1  3.24%
8. Cc1nc2ccccc2c2oc(C(=O)NCCCN3CCC(Cc4ccccc4)CC3)cc12  2.85%
9. Cc1ccc(CNC(=O)CSc2nc3ccccc3nc2N2CC(C)OC(C)C2)cc1 (stereo not drawn)  1.72%
10. CCCCNc1nc(Oc2ccc(OCCC)nn2)nc(N2CCOCC2)n1  1.46%
11. Cc1cc(-c2ccco2)c(C#N)c(N)n1  1.38%
12. O=C1C2CC=CCC2C(=O)N1c1cccc(O)c1 (stereo not drawn)  0.993%
13. CC(=O)N(C)c1ccc(NC(=O)COc2ccc3ccccc3c2Br)cc1  0.746%
14. CN(Cc1ccco1)S(=O)(=O)c1ccc(-c2ccc(O)nn2)s1  -0.171%
15. C/C(=C(\NC(=O)c1ccccc1)C(=O)O)c1ccccc1  -0.48%
16. Cc1ccc(NC(=O)CCNC(=O)Cn2ccc3ccccc3c2=O)nc1  -0.631%
17. Cc1n[nH]c(C)c1S(=O)(=O)N1CCCC(C(=O)NCc2ccc(F)cc2)C1 (stereo not drawn)  -1.03%
18. CCOc1ccc(NC(=O)C2=C(C)NC(=O)NC2c2ccc(O)c(OC)c2)cc1 (stereo not drawn)  -2.05%
19. CC(NCc1ccccc1)=C1C(=O)N(C)C(=O)N(C)C1=O  -2.07%
20. CN(C)S(=O)(=O)c1ccc2c(c1)nc1n2CCC1  -2.72%
21. CC(C)c1ccc(-c2c(N3CCOCC3)c(=O)c2=O)cc1  -3.5%
22. NC(c1ccccc1)c1c(O)ccc2ccccc12 (stereo not drawn)  -3.92%
23. COc1ccc2ncc(S(=O)(=O)c3ccccc3)c(N3CCOCC3)c2c1  -4.86%
24. CN1CCN(C(=O)c2ccc(CS(=O)Cc3ccc(Cl)cc3)o2)CC1 (stereo not drawn)  -5.43%
25. O=C1C2C3C=CC(C3)C2C(=O)N1c1ccccc1[N+](=O)[O-] (stereo not drawn)  -6.09%
26. CC(C)CNC(=O)COCc1cc(-c2cccs2)on1  -6.13%
27. CN(Cc1ccccc1)C(=O)C1CCCN(Cc2ccc(Cl)cc2)C1 (stereo not drawn)  -9.48%
